In all, about 39,000 compounds went through this assay and about 220 (0.56%) showed activity. Some of the results follow.
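Further: static incubation at 37 °C against the wild-type strain, values averaged over two biological replicates.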

The test has as its system Escherichia coli K-12 BW25113. The test can be described thus: relative growth (OD600 normalised to plate interquartile mean) (fraction); higher = less growth inhibition, active = 0.2 or less. The conditions noted are these: 50 µM; LB; incubation time: overnight (16-24 h).
As to `COCC(=O)N(C)C[C@@H]1Oc2cc(C#CC(C)(C)O)ccc2S(=O)(=O)N([C@H](C)CO)C[C@H]1C`, the relative growth is inactive: 0.992.

On to `C[C@@H]1CN([C@@H](C)CO)C(=O)c2cc(NS(=O)(=O)c3cccs3)ccc2O[C@H]1CN(C)S(=O)(=O)c1ccc(F)cc1`, for which the relative growth was inactive: 1.01. As to `C#CCN(O[C@@H](/C=C/[C@@H](O)CCn1cc(-c2ccc(C(=O)NO)s2)nn1)C1CC1)[C@@H](Cc1ccccc1)C(=O)OC`, the relative growth is inactive: 1.

Regarding `COCCOC(=O)N1C(=O)[C@@]2(c3ccccc31)[C@H](C(=O)N1CCCCCCC1)[C@H]1C(=O)O[C@H](c3ccccc3)[C@H](c3ccccc3)N1[C@@H]2c1ccccc1OCCO`, the relative growth is inactive: 1.01. For `Nc1nc(=O)c2ncn([C@@H]3O[C@H](CO)[C@@H](O)[C@H]3O)c2[nH]1`, the relative growth is inactive: 1.03. Consider `C[C@H](CO)N1C[C@H](C)[C@@H](CN(C)C(=O)Nc2ccc3c(c2)OCO3)OCCCC[C@H](C)Oc2ccc(NC(=O)Cc3ccccc3)cc2C1=O`, for which the relative growth was inactive: 1.03. The value for `O=C(CCCl)NCc1ccccc1` was inactive: 1.1.

As for `COc1cccc(S(=O)(=O)N2[C@@H]3CC[C@@H](C3)[C@H]2c2nc3cccc(OCc4ccc(F)cc4)c3[nH]2)c1`, the relative growth was inactive: 1.06.

For the compound `CC12CCC3c4ccc(O)cc4CCC3C1CCC2O` (centres undefined), the relative growth is inactive: 1.01.

On to `O=C1[C@@H]2CCCN2C(=O)[C@@H]2CCCN12`, for which the relative growth was inactive: 1.01.

Take `C=CCC(N)(CC=C)c1ccc(C)cc1`: the relative growth was inactive: 1.02. With `CN1CCN([C@@H]2CCN(S(C)(=O)=O)[C@H]2Cc2cnn(C)c2)CC1`, the relative growth is inactive: 1.03. In the case of `O=C(C[C@H]1C[C@@H]2c3cc(NC(=O)Cc4ccncc4)ccc3O[C@@H]2[C@H](CO)O1)NCCN1CCCCC1`, the relative growth was inactive: 0.986.

Consider `C[C@@H]1CCCCO[C@@H](CN(C)C(=O)Nc2ccc3c(c2)OCO3)[C@@H](C)CN([C@H](C)CO)C(=O)c2cc(NC(=O)Nc3ccc(C(F)(F)F)cc3)ccc2O1`, for which the relative growth is inactive: 0.988. Regarding `C[C@H](CO)N1C[C@H](C)[C@H](CN(C)Cc2ccc(C(=O)Nc3ccccc3N)cc2)Oc2ccc(NC(=O)Cn3cnnn3)cc2C1=O`, the relative growth is inactive: 1.

Take `NC(=O)[C@H]1CCN(c2ncnc(N)c2F)C[C@@H]1N1CCC[C@@H](Nc2cc(Cl)cc(C(F)(F)F)c2)C1=O`: the relative growth is inactive: 0.985. `COCC(=O)N1C[C@@H](C)[C@@H](OC)CN(C)C(=O)c2cc(NC(=O)Nc3cccc(F)c3)ccc2OC[C@@H]1C`: the relative growth is inactive: 1. As for `C[C@H](CO)N1C[C@H](C)[C@@H](CN(C)C(=O)c2ccccc2)OCCCC[C@H](C)Oc2ccc(NC(=O)C3CCCCC3)cc2C1=O`, the figure is inactive: 0.988.

In the case of `CSCc1nc(=O)cc(C(=O)O)[nH]1`, the relative growth was inactive: 0.996. For the compound `C[C@H]1CN([C@@H](C)CO)C(=O)c2cccc(NC(=O)C3CCOCC3)c2O[C@H]1CN(C)C(=O)Nc1ccccc1`, the relative growth was inactive: 0.901. With `C[C@@H]1CN([C@H](C)CO)C(=O)c2cc(NS(=O)(=O)c3ccc(F)cc3)ccc2O[C@H]1CN(C)Cc1ccc(Oc2ccccc2)cc1`, the relative growth is inactive: 1.03. On to `C[C@@H]1CN([C@H](C)CO)C(=O)c2cc(NC(=O)CCN3CCOCC3)ccc2O[C@@H]1CN(C)C(=O)Nc1ccccc1`, for which the relative growth was inactive: 0.992. Turning to `CCOC(=O)CSc1nc(=O)cc(C)[nH]1`, the relative growth is inactive: 0.987. As for `Cc1ccc(S(=O)(=O)Nc2cccc3c2O[C@@H](CN(C)S(=O)(=O)c2ccccc2)[C@@H](C)CN([C@H](C)CO)C3=O)cc1`, the relative growth was inactive: 1.01. Consider `CC(C)(C)OC(=O)N1C[C@H]2C[C@@H]1C(=O)O2`, for which the relative growth was inactive: 0.994. Regarding `O=S(=O)(NCC[C@@H]1CC[C@H](NS(=O)(=O)c2ccccc2Cl)[C@H](CO)O1)c1ccc(Cl)cc1`, the relative growth is inactive: 0.999. As for `Cc1ccc(C2OC(CO)C(O)C(O)C2O)cc1Cc1ccc(-c2ccc(F)cc2)s1` (centres undefined), the figure is inactive: 0.98. The value for `Cc1noc(C)c1S(=O)(=O)Nc1ccc2c(c1)CC(=O)N([C@H](C)CO)C[C@H](C)[C@@H](CN(C)S(=O)(=O)c1cn(C)cn1)O2` was inactive: 0.999; that for `Cc1ccc(F)c(S(=O)(=O)N2[C@@H]3CC[C@@H](C3)[C@H]2c2nc3cccc(OCc4ccc(F)cc4)c3[nH]2)c1` was inactive: 1; that for `COc1ccc(C2COc3c(ccc(O)c3OC)C2)c(OC)c1O` (centres undefined) was inactive: 1.06. For the compound `C[C@@H]1CN([C@@H](C)CO)C(=O)Cc2cc(NS(=O)(=O)c3ccccc3)ccc2O[C@H]1CN(C)Cc1ccc(Oc2ccccc2)cc1`, the relative growth was inactive: 0.969. `C[C@@H]1CN([C@H](C)CO)C(=O)c2cccc(NS(C)(=O)=O)c2O[C@H]1CN(C)S(=O)(=O)c1ccccc1`: the relative growth was inactive: 0.986. With `C[C@H](CO)N1C[C@H](C)[C@H](CN(C)C(=O)Cc2cccnc2)Oc2cc(-c3cncnc3)ccc2S1(=O)=O`, the relative growth is inactive: 0.996.

Take `NS(=O)(=O)c1cc2c(cc1Cl)N=CNS2(=O)=O`: the relative growth was inactive: 1.01.

As to `Cc1noc(C)c1NC(=O)Nc1ccc2c(c1)C(=O)N([C@H](C)CO)C[C@@H](C)[C@H](CN(C)Cc1ccc3c(c1)OCO3)OCCCC[C@@H](C)O2`, the relative growth is inactive: 1.01.

With `CN(C)C(=O)C[C@@H]1C=C[C@@H](NC(=O)C2CC2)[C@H](CO)O1`, the relative growth is inactive: 1.01. The value for `Cc1n[nH]c(N/N=C/c2ccccn2)nc1=O` was inactive: 0.464; that for `CC(=O)NCCCC[C@@H]1NC(=O)[C@@H]2C[C@H](C(=O)O)[C@H](c3ccc(O)cc3)N2C1=O` was inactive: 0.968; that for `Cc1ccc(S(=O)(=O)Nc2ccc3c(c2)C(=O)N([C@@H](C)CO)C[C@H](C)[C@H](CN(C)Cc2ccncc2)OCCCC[C@H](C)O3)cc1` was inactive: 0.991. Turning to `Cc1[nH]c(=O)c(C(=O)O)c2c1CCC2`, the relative growth was inactive: 0.994. The value for `COCC(=O)N1C[C@H](C)[C@H](OC)CN(C)C(=O)c2ccc(NC(=O)c3ccc(OC)cc3)cc2OC[C@@H]1C` was inactive: 1.02. As to `C[C@H](CO)N1C[C@H](C)[C@@H](CN(C)S(=O)(=O)c2cccs2)Oc2ccc(NC(=O)CCC(F)(F)F)cc2CC1=O`, the relative growth is inactive: 0.987. On to `C[C@@H]1CN([C@@H](C)CO)S(=O)(=O)c2ccc(-c3cccnc3)cc2O[C@H]1CN(C)C(=O)NC1CCCC1`, for which the relative growth was inactive: 0.987. The value for `Cc1ccc(S(=O)(=O)N(C)C[C@@H]2OCCCC[C@H](C)Oc3ccc(NC(=O)CCCCCC(=O)Nc4ccccc4N)cc3C(=O)N([C@H](C)CO)C[C@@H]2C)cc1` was inactive: 1.02; that for `C[C@H](CO)N1C[C@H](C)[C@@H](CN(C)C(=O)NC2CCCC2)Oc2cc(-c3cncnc3)ccc2S1(=O)=O` was inactive: 0.96. Regarding `O=C(C[C@@H]1CC[C@@H]2[C@H](COC[C@@H](O)CN2S(=O)(=O)c2ccccc2F)O1)NCc1ccccc1F`, the relative growth is inactive: 1.01. With `COc1ccc(-c2nc3cc(C4=NNC(=O)CC4C)ccc3[nH]2)cc1` (centres undefined), the relative growth is inactive: 1.05. As for `C[C@@H]1CN([C@@H](C)CO)C(=O)Cc2cc(NC(=O)NC3CCCCC3)ccc2O[C@H]1CN(C)Cc1ccc(C(=O)Nc2ccccc2N)cc1`, the relative growth was inactive: 0.98. The value for `C[C@@H]1CCCCO[C@@H](CN(C)C(=O)c2ccccc2)[C@@H](C)CN([C@@H](C)CO)C(=O)c2cc(NS(=O)(=O)c3ccccc3)ccc2O1` was inactive: 1.01.

As to `COc1ccc(S(=O)(=O)N(C)C[C@H]2OCCCC[C@H](C)Oc3ccc(NC(=O)C4CCCCC4)cc3C(=O)N([C@@H](C)CO)C[C@@H]2C)cc1`, the relative growth is inactive: 0.987. Turning to `CCNC(=O)C[C@@H]1CC[C@@H]2[C@H](COC[C@H](O)CN2S(=O)(=O)c2ccc(Oc3ccccc3)cc2)O1`, the relative growth was inactive: 0.995. For `NNC(=O)c1cc2ccccc2[nH]1`, the relative growth was inactive: 0.98.

`O=C1CN(S(=O)(=O)Cc2ccccc2)C[C@@H]2[C@@H](c3ccc(C#Cc4ccc(F)cc4)cc3)[C@@H](CO)N12`: the relative growth was inactive: 0.996. The value for `Cc1noc(C)c1S(=O)(=O)N(C)C[C@H]1Oc2c(NC(=O)c3cnccn3)cccc2C(=O)N([C@H](C)CO)C[C@H]1C` was inactive: 1.01; that for `Cc1ccc(S(=O)(=O)N(C)C[C@H]2Oc3c(NC(=O)C4CCOCC4)cccc3C(=O)N([C@@H](C)CO)C[C@@H]2C)cc1` was inactive: 1.01. As to `COc1ccc(S(=O)(=O)Nc2cccc3c2O[C@H](CN(C)CC2CC2)[C@@H](C)CN([C@@H](C)CO)C3=O)cc1`, the relative growth is inactive: 1.02. Regarding `COc1ccc(NC(=O)Nc2cccc3c2O[C@@H](CN(C)S(C)(=O)=O)[C@@H](C)CN([C@@H](C)CO)C3=O)cc1`, the relative growth was inactive: 0.992. As to `C[C@@H]1CN([C@H](C)CO)C(=O)c2cc(NS(=O)(=O)c3ccc(F)cc3)ccc2O[C@@H](C)CCCCO[C@H]1CN(C)S(=O)(=O)c1ccc(Cl)cc1`, the relative growth was inactive: 1.02. For `COc1cccc(NC(=O)N[C@@H]2CC[C@H](CC(=O)N3CCOCC3)O[C@@H]2CO)c1`, the relative growth was inactive: 0.98.

Turning to `CCCN(C)C[C@H]1OCCCC[C@H](C)Oc2ccc(NC(=O)Nc3ccc(F)cc3)cc2C(=O)N([C@@H](C)CO)C[C@H]1C`, the relative growth was inactive: 1.01.

For `O=C(C[C@H]1CC[C@H](NC(=O)Nc2ccc3c(c2)OCO3)[C@@H](CO)O1)NCCCN1CCOCC1`, the relative growth was inactive: 0.991. Regarding `CC(=O)OC1CC(C)(C)C(=C=C/C(C)=C/C=C/C(C)=C/C=C/C=C(C)/C=C/C=C(\C)C(=O)CC23OC2(C)CC(O)CC3(C)C)C(C)(O)C1` (centres undefined), the relative growth was inactive: 1.01. Take `COCC#Cc1cnc2c(c1)C(=O)N([C@H](C)CO)C[C@H](C)[C@@H](CN(C)C(=O)Nc1cc(F)ccc1F)O2`: the relative growth was inactive: 0.984. `C[C@@H]1CCCCO[C@@H](CN(C)C(=O)Nc2cccc3ccccc23)[C@H](C)CN([C@H](C)CO)C(=O)c2cc(NC(=O)NC3CCCCC3)ccc2O1`: the relative growth is inactive: 0.952.
